Source: the supplement of paper PMC10126150
Values marked as one replicate rest on one cluster of the flow cell; about a third of the high ones do not repeat.

Tested on: ATP
Assay: switch fluorescence ratio, 500 uM ATP over buffer (Cy3 cluster intensity, sum of 5 cycles each) (fold (ratio)); higher = stronger signal-on switching upon ATP binding; sequences stand for … in TCGTCGGCAGCGTCAGATGTGTATAAGAGACAGTTTTTTTTTTTTTTTTTTTTTTTTT…TC
Conditions: aptamer strand: ATP DNA aptamer (quencher-CACCTGGGGGAGTATTGCGGAGGAAGG + anchor), 100 nM annealed; ATP concentration: 500 uM; one replicate
In short: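 After annealing to 100 nM quencher-labelled ATP aptamer, Cy3-labelled switching-strand clusters on a modified Illumina MiSeq flow-cell were imaged in selection buffer. A second image followed after 15 min with 500 uM ATP at 22 °C, and five such buffer/ATP cycles were done, each separated by NaOH stripping and re-annealing. The fluorescence ratio, averaged per switch-domain sequence, is summed target-cycle over summed buffer-cycle Cy3 intensity per cluster, with clusters outside 100-1000 RFU excluded.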
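Note: ATP exposure 15 min at 22 °C before imaging.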

ATGGTGTGTA
switch fluorescence ratio: 0.964

GGGGGCGAGG
switch fluorescence ratio: 0.983

ATGAAACGGG
switch fluorescence ratio: 1.05

ATTGCAGGCG
switch fluorescence ratio: 0.942

TCCTAAATTC
switch fluorescence ratio: 1.07

CCGGCTCCGT
switch fluorescence ratio: 1.29

AGTTAAGGTA
switch fluorescence ratio: 0.984

GCACATAATG
switch fluorescence ratio: 1.07

GGGTCTTCCG
switch fluorescence ratio: 1.03

TGTATCCCAT
switch fluorescence ratio: 1.26

GTGTTCGTCC
switch fluorescence ratio: 0.999

ATGTTAGTTA
switch fluorescence ratio: 0.98

GGGTCTGTC
switch fluorescence ratio: 1.32

GTGAAAAGTG
switch fluorescence ratio: 0.99

AATTTGTCG
switch fluorescence ratio: 1.11

CATGCACCCA
switch fluorescence ratio: 1.07

ATTACCCCAT
switch fluorescence ratio: 1.07

TGGCTTAAT
switch fluorescence ratio: 0.991

ACGTGAATTA
switch fluorescence ratio: 1.05

TTCAATGATG
switch fluorescence ratio: 1.03

TCGAAGCTTA
switch fluorescence ratio: 2.28

GAACGTATCA
switch fluorescence ratio: 0.976

GCATAAACAA
switch fluorescence ratio: 0.985

TCAGGTCATC
switch fluorescence ratio: 1.02

GAATTATGTA
switch fluorescence ratio: 0.931

CACATGATCG
switch fluorescence ratio: 0.978

TTACGTTTGA
switch fluorescence ratio: 1.01

GATGATGGAT
switch fluorescence ratio: 1

ATGCTAAGGG
switch fluorescence ratio: 0.948

GGGTATCGTG
switch fluorescence ratio: 0.94

AGAGATAATG
switch fluorescence ratio: 1.02

TCGGAGAATT
switch fluorescence ratio: 0.984

CCCTAGGGGG
switch fluorescence ratio: 1.53

ACCGAGCCGT
switch fluorescence ratio: 1.02

ACCCCTTTGT
switch fluorescence ratio: 1.07

ATTTGTGTAG
switch fluorescence ratio: 1.02

GCTCTTTCTA
switch fluorescence ratio: 1.01

ACCTGGTCTT
switch fluorescence ratio: 1.01

TTCTGCCAGT
switch fluorescence ratio: 1.61

TGGGATCATA
switch fluorescence ratio: 1.08

GAGAGAAGGA
switch fluorescence ratio: 0.97

GTGGCAGGGT
switch fluorescence ratio: 0.918

TTCTGGCAAG
switch fluorescence ratio: 1.01

CCGAACCCGG
switch fluorescence ratio: 1.17

GCAGCGAATC
switch fluorescence ratio: 3.68

TAGTTCGTAG
switch fluorescence ratio: 1.04

CGACTCGGGA
switch fluorescence ratio: 0.95

GCTCACACAC
switch fluorescence ratio: 1.58

CACTGTGAGA
switch fluorescence ratio: 1.03

TAAGATTCCT
switch fluorescence ratio: 1.07

CGTTCGTATC
switch fluorescence ratio: 1.14

TACGACGTT
switch fluorescence ratio: 1.08

AGGCCATCAG
switch fluorescence ratio: 0.991

AATCAAGTTC
switch fluorescence ratio: 0.975

TTTCATACCG
switch fluorescence ratio: 0.937

GTAAGAGGTG
switch fluorescence ratio: 1.14

AAGGGCCGGT
switch fluorescence ratio: 0.977

CGGACGCTCG
switch fluorescence ratio: 0.971

GCGGTATCAT
switch fluorescence ratio: 0.979

CGTCCCAGGG
switch fluorescence ratio: 2.63

AGATCAGACG
switch fluorescence ratio: 0.97

ACCCTTATTT
switch fluorescence ratio: 0.99

GATATGATGA
switch fluorescence ratio: 1.03

ACAAGCAAAG
switch fluorescence ratio: 1.16

TGCATCCAGG
switch fluorescence ratio: 1.64

TGTAATGGGA
switch fluorescence ratio: 0.971

ATGCATGTC
switch fluorescence ratio: 1.02

GAGGTTTTT
switch fluorescence ratio: 1.03

AAAGACTCCG
switch fluorescence ratio: 0.98

ATGTCCTGAA
switch fluorescence ratio: 1

TGATAGTTCA
switch fluorescence ratio: 1.01

TACTCGAGTG
switch fluorescence ratio: 0.98

ACGTAACGG
switch fluorescence ratio: 1.3

GACGAGAAGA
switch fluorescence ratio: 1.1

GTTTATATTT
switch fluorescence ratio: 1.03

GGGTACTCTC
switch fluorescence ratio: 1.04

CTCTTCTAT
switch fluorescence ratio: 0.997

CACCTCCGTA
switch fluorescence ratio: 1.96

GTTGCAATGT
switch fluorescence ratio: 1.19

ACATTCGGGT
switch fluorescence ratio: 1.04

CCGTTTCTG
switch fluorescence ratio: 1.04

ACCAGGACTT
switch fluorescence ratio: 1.03

CTATTCCGTT
switch fluorescence ratio: 1.01

TTGGTCCTCT
switch fluorescence ratio: 0.991

TTGTTTGCGT
switch fluorescence ratio: 1.02

AACTAGACAG
switch fluorescence ratio: 1.01

ACGGTGGGTG
switch fluorescence ratio: 1.01

CATCATGAGC
switch fluorescence ratio: 1.06

TACGACTTTC
switch fluorescence ratio: 1.09

GTAACTGGTG
switch fluorescence ratio: 1.12

GACGCGGGTT
switch fluorescence ratio: 1.03

AAGTCAGAT
switch fluorescence ratio: 0.98

GTTCATCTAG
switch fluorescence ratio: 0.95

TGCTAGATTG
switch fluorescence ratio: 1.02

TAACCGTAAC
switch fluorescence ratio: 1.64

CATGGCGGGC
switch fluorescence ratio: 0.986

GATGAATTTC
switch fluorescence ratio: 1.03

ATGGGCATAA
switch fluorescence ratio: 1.04

CATATGGACT
switch fluorescence ratio: 1.01

AGAACCGCCG
switch fluorescence ratio: 1.06

ACATCTAT
switch fluorescence ratio: 1.04

ATTCCAAACG
switch fluorescence ratio: 1.06

CAGGGTGCGA
switch fluorescence ratio: 1.04

GATGCACATG
switch fluorescence ratio: 1.07

GCCGTCCTGA
switch fluorescence ratio: 1

CCTATTAATA
switch fluorescence ratio: 1

CGGTACGTA
switch fluorescence ratio: 1.04

CGGAGTGCGT
switch fluorescence ratio: 1

CGGAGAATTC
switch fluorescence ratio: 1.14

AGACATGGCG
switch fluorescence ratio: 1.08

GAATCTACTA
switch fluorescence ratio: 1.05

ATGGGAATAA
switch fluorescence ratio: 1.05

CATGCAGTGA
switch fluorescence ratio: 1.02

CAAGTATTAA
switch fluorescence ratio: 1.21

GTCATTGATA
switch fluorescence ratio: 0.958

TGATGTAGTA
switch fluorescence ratio: 1

ATTAGGCCTC
switch fluorescence ratio: 0.988

GGATCTGAGG
switch fluorescence ratio: 1.03

AAGTAATGAG
switch fluorescence ratio: 0.987

GAGCCTACC
switch fluorescence ratio: 1.07

TTTGGCCTAA
switch fluorescence ratio: 0.985

AGTACGGGAA
switch fluorescence ratio: 1.05

ATGATACCGT
switch fluorescence ratio: 0.969

GTTATGACTA
switch fluorescence ratio: 0.962

TGATGCTTG
switch fluorescence ratio: 1.01

ACATAAGTAT
switch fluorescence ratio: 0.972

ACTCTAAGAA
switch fluorescence ratio: 1.11

GGCTCAATGT
switch fluorescence ratio: 0.961

TCATACAC
switch fluorescence ratio: 1.12

TTACTATGAC
switch fluorescence ratio: 1.03

ACTTAAGCGC
switch fluorescence ratio: 1.08

TTCGTACTAG
switch fluorescence ratio: 1.02

TAGTAACTCG
switch fluorescence ratio: 0.991

AGGGAAGGCT
switch fluorescence ratio: 1.05

CTCACCAAC
switch fluorescence ratio: 1.3

ATTTCTGATA
switch fluorescence ratio: 0.987

TAGTCATGGG
switch fluorescence ratio: 0.977

GTTGGAGCAA
switch fluorescence ratio: 1.77

GTTGGCCCAA
switch fluorescence ratio: 1.04

CCGGCCATAA
switch fluorescence ratio: 2.11

GGTCTCCGT
switch fluorescence ratio: 0.965

TTACTGATC
switch fluorescence ratio: 1.04

CAGAGGGCGT
switch fluorescence ratio: 0.982

CTCATAATGC
switch fluorescence ratio: 2.25

TGCCGGCCGG
switch fluorescence ratio: 1.06

AATTCGAGCC
switch fluorescence ratio: 1.03

GCTAGGTATT
switch fluorescence ratio: 1.02

GCTACTTGTA
switch fluorescence ratio: 1.03

TAATACACGC
switch fluorescence ratio: 1.11

CGAAAGGAAA
switch fluorescence ratio: 0.992

GCACGGGTGC
switch fluorescence ratio: 1.05

GACCTAGAAG
switch fluorescence ratio: 1.02

TTTGGTCATC
switch fluorescence ratio: 1

GCCACTCCCT
switch fluorescence ratio: 1.42

GAAAACTACG
switch fluorescence ratio: 1.58

CCATCCGCGT
switch fluorescence ratio: 5.04

ATAGATGTGG
switch fluorescence ratio: 1.03
